Experimental data taken from ChEMBL document CHEMBL4888484, “Replenishing the malaria drug discovery pipeline: Screening and hit evaluation of the MMV Hit Generation Library 1 (HGL1) against asexual blood stage Plasmodium falciparum ,using a nano luciferase reporter read-out” (2022).
About 540 (0.36%) of roughly 150,000 compounds showed an effect of 50% or more. This is one part of the list.

Each compound was assayed on Plasmodium falciparum (assay: Primary screen in NF54 nanoGlo assay, in single point, at 2uM, 72h; a lower Z score goes with more inhibition). Settings: timepoint 72 hour.
Type: functional, Erythrocyte

| SMILES | % Inhibition | Z score |
| --- | --- | --- |
| C=CCC[C@@H](CN1CCN(C(C)=O)CC1)Oc1cccc(C#N)n1 | -10% | 1.82 |
| N#CC1C(=O)NC(=N)C(c2nc(-c3ccccc3)cs2)C12CCCCC2 (stereo not drawn) | -4% | 0.59 |
| CC(=O)N(CC(=O)N1CCCCC1)c1cccc(C)c1 | 1% | -0.18 |
| CN1C(=O)[C@@H]2CC[C@H]1CN(C(=O)c1cc(N)ccn1)C2 | 3% | -0.36 |
| O=C1Cc2cc(S(=O)(=O)N3CCC[C@H]3c3nc4ccccc4s3)ccc2N1 | -16% | 3.11 |
| Cc1n[nH]c(C)c1[C@@H](C)CC(=O)N(C)Cc1nccn1Cc1ccccc1 | -14% | 1.61 |
| CC1CCN(C(=O)C(C)N(C)C2CCN(CC(F)(F)F)C2=O)CC1 (stereo not drawn) | -3% | 0.45 |
| CC(=Cc1ccccc1)CN1CCO[C@@H](Cn2cccn2)C1 | -1% | 0.16 |
| C[C@@H](NCc1ccc(F)cc1)c1onc(-c2ccccc2)c1C(=O)O | 14% | -1.65 |
| C[C@@H]1Oc2ccc(NC(=O)CCc3ccco3)cc2NC1=O | -3% | 0.25 |
| CCn1ccc2ccc(CN(Cc3ccccn3)C[C@@H]3CCC(=O)N3)cc21 | 9% | -1.16 |
| Cc1cc(N2CCN(C(=O)c3ccc(F)cc3)CC2)nc(C2CC2)n1 | 11% | -1.44 |
| CN(Cc1ccsc1)C(=O)CC(F)(F)F | -11% | 1.52 |
| Cc1cc(NC(=O)N[C@@H](C)C(C)C)no1 | -12% | 1.58 |
| Cc1ccccc1-c1noc([C@@H]2CCCN2S(=O)(=O)c2cccc(Cl)c2C)n1 | -2% | 0.23 |
| Fc1ccccc1-c1nnc2c3ccc(Cl)cc3nc(NCc3ccccc3)n12 | 4% | -0.37 |
| CC(C)c1nc2cc(CCC(=O)Nc3ccc4c(c3)OCCO4)ccc2[nH]1 | -8% | 1.17 |
| Cn1cc(S(=O)(=O)Nc2ccnn2-c2cccc(Cl)c2)cn1 | -4% | 0.61 |
| O=C1CN(C2CC2)C(=O)[C@H](COCc2ccccc2)N1 | -8% | 1.04 |
| O=C([C@H]1C[C@@H]1c1ccc(F)cc1F)N1CCCS(=O)(=O)CC1 | -8% | 0.97 |
| Cc1nn(C)c(C)c1S(=O)(=O)Nc1cccc2[nH]ncc12 | -9% | 1.26 |

| SMILES | % Inhibition | Z score |
| --- | --- | --- |
| O=C(NC[C@H]1C[C@@H]1c1ccccc1)N1CC(=O)N(C2CC2)C1 | -9% | 1.49 |
| COc1ccc(C(=O)NCCNC(=O)c2nc(C3CC3)no2)cc1OC | -9% | 0.91 |
| COc1ccc(C(=O)N[C@@H](C)c2ncnn2C)cn1 | -12% | 1.14 |
| CCC(CC)C(=O)Nc1cccc(C(F)(F)F)c1 | -2% | 0.3 |
| O=C(CN1C(=O)CCC1=O)NCCc1ccsc1 | -16% | 2.73 |
| Cc1cccc2[nH]c(CNC(=O)C3CCCC3)nc12 | 3% | -0.64 |
| COc1ccc2c(c1)[C@H](C(=O)Nc1nncn1C)CC2 | 2% | -0.27 |
| CN(C)C(=O)N1CCC[C@H](C(=O)NCc2ccc(F)cc2)C1 | -9% | 1.42 |
| Cc1nn(CC(=O)NCC2(O)CCC(F)(F)CC2)c2ncccc12 | 12% | -1.43 |
| CN(CCO)c1ccc(C(=O)N2CCN(c3cccc(Cl)c3)C(=O)C2)cc1 | -5% | 0.68 |
| Cc1[nH]c2ccccc2c1/C=C/c1nccc2ccccc12 | -8% | 1.11 |
| Cc1nc(N2CCOCC2)sc1CNCCn1cccn1 | -3% | 0.44 |
| CN(CCc1ncnn1Cc1ccc2c(c1)OCO2)S(C)(=O)=O | -3% | 0.29 |
| CN1CN(C(=O)c2c[nH]c(C#N)c2)CC1=O | -5% | 0.54 |
| Cc1cc(NC(=O)NC2CC(C)n3ccnc32)ccn1 (stereo not drawn) | -1% | 0.11 |
| CCNc1ccc(C#N)cc1NCc1nccn1C | -7% | 0.79 |
| COc1ccc(C)cc1/N=C(\NCCc1c(C)nn(C)c1C)NC(=O)c1ccc(OC)c(OC)c1 | 7% | -1.35 |
| COc1cccc(-c2nc(C(=O)NCc3cnn(-c4ccc(F)cc4F)c3)c(C)[nH]2)c1 | -8% | 0.7 |
| C[C@H](NS(=O)(=O)c1ccc2c(c1)OCCCO2)C(=O)NCc1ccc2c(c1)OCO2 | -7% | 0.92 |
| CCCNC(=O)[C@@H](NC(=O)c1ccc(OC)cc1)C1CCN(C(=O)COC)CC1 | 6% | -0.88 |
| CO[C@@H]1COC[C@@H]1S(=O)(=O)NC(C)CC(=O)c1ccccc1 (stereo partly drawn) | 1% | -0.11 |

| SMILES | % Inhibition | Z score |
| --- | --- | --- |
| O=C(NCCCCN1CCCC1)c1cccc(-c2ncccn2)c1 | -6% | 0.94 |
| O=C(NC1CC1)[C@@H]1CCCN1S(=O)(=O)c1ccc2c(c1)CCC2 | -13% | 1.99 |
| Cc1ccc(CN(Cc2ccc(F)cc2)Cc2nc(C(=O)N3CCN(c4cccc(Cl)c4)CC3)cs2)cc1 | -11% | 1.11 |
| CC[C@H](NC(=O)N1CCN(c2nncn2C)CC1)c1csc(C)c1 | -17% | 2.71 |
| Cc1noc(C)c1CN1C(=O)[C@@H]2CC[C@H]1CN(c1ncccc1C(N)=O)C2 | -14% | 1.67 |
| Cc1csc(C2CCCN(S(=O)(=O)N3CCC4CCCCC4C3)C2)n1 (stereo not drawn) | -4% | 0.6 |
| C[C@@H](C(=O)N(C)C)S(=O)(=O)N(c1cccc(F)c1)C1CCCC1 | -12% | 1.18 |
| O=C(NC1CCC1)c1coc(COc2cccc(F)c2)n1 | -1% | 0.13 |
| N#Cc1csc(CNc2nnc([C@@H]3CCCO3)o2)c1 | -7% | 0.93 |
| O=C1C[C@H](CNC(=O)N2CCC(c3c(Cl)cccc3Cl)CC2)CN1 | -20% | 2.04 |
| C=CCN(C(=O)c1coc(-c2cccnc2)n1)c1nc2c(s1)CCCC2 | 0% | -0.01 |
| CCc1nc(-c2cc(NC(=O)CNC(=O)c3ccc(C)cc3)c(C)s2)no1 | -7% | 0.71 |
| CCC[C@@]1(C2CC2)NC(=O)N(Cc2ncnn2C)C1=O | -4% | 0.69 |
| CN(C)CCN(C)c1ccc(Br)cc1NCc1ccnn1C | 8% | -1.04 |
| CCc1cc(C(=O)N(C)C[C@]2(c3ccccc3)CC2(C)C)cc(=O)[nH]1 | 0% | 0.05 |
| Cc1cc(CC(=O)N[C@H]2CC(=O)N(c3ccccc3)C2)n[nH]1 | -12% | 1.26 |
| CC(c1cnn(C)c1)c1nc(C2CCOC3(CCCC3)C2)no1 (stereo not drawn) | -2% | 0.3 |
| Cc1cccc(N2CCN(C(=O)CC3CCN(C(=O)c4[nH]c(C)cc4C)CC3)C[C@@H]2C)c1 | -3% | 0.24 |
| CN1C(=O)c2cccn2C[C@@H]1CNS(=O)(=O)c1ccc(F)cc1 | -14% | 2.63 |
| N#Cc1cc2n(n1)CCN(CCCCOc1ccccc1)C2 | 4% | -0.76 |
| CCCc1cc(C(=O)N(C)[C@@H](C)c2cc(-c3ccccc3)[nH]n2)n(C)n1 | -7% | 0.9 |

| SMILES | % Inhibition | Z score |
| --- | --- | --- |
| Cc1occc1C(=O)N(C)[C@@H](C)C1CC1 | -14% | 1.52 |
| O=C(O)CN(C1CCC1)S(=O)(=O)c1ccc2c(c1)CCC2 | 20% | -2.51 |
| OC(CN1CCOC2CCCCC21)Cn1cccn1 (stereo not drawn) | -5% | 0.7 |
| CC(C)(C)OC(=O)N1CCC2(CC(NCc3ccccc3)c3ccccc3O2)C1 (stereo not drawn) | -9% | 1.1 |
| COc1cc2c(c(OC)c1OC)CCN(C(=O)c1ncc(C)cc1O)CC2 | -3% | 0.25 |
| Cc1cc(N2C(=O)C(C)(C)CS2(=O)=O)ccc1S(=O)(=O)N[C@H]1CCS(=O)(=O)C1 | -1% | 0.17 |
| C[C@@H](C(=O)Nc1ccc2c(c1)OCCO2)N1C(=O)c2ccncc2C1=O | -5% | 0.69 |
| C[C@@H](CCc1ncnn1-c1ccc2c(c1)CCC2)N1CCN(C)CC1 | -4% | 0.47 |
| Cc1ccc(N2CC[C@@H](C(=O)NCc3ccccn3)C2=O)cc1Cl | -11% | 1.39 |
| O=C(NCc1cccc(Cl)c1)c1cccn1-c1cccnc1 | -7% | 0.71 |
| CN(CC(F)(F)F)C(=O)CNc1cccc(F)c1C#N | 3% | -0.45 |
| CC1CN(S(=O)(=O)NCC2CCOC2)CC(C)O1 (stereo not drawn) | -3% | 0.5 |
| O=C1CN(C(=O)N[C@@H](Cc2ccccc2)C(=O)Nc2ccc(F)c(Cl)c2)c2ccccc2N1 | 0% | -0.05 |
| CCc1noc(C)c1C(=O)N1CCC2(CCCCC2)C1 | -6% | 0.64 |
| Cc1nc(C(C)(C)NCc2nnc(-c3ccco3)o2)sc1C | -8% | 0.7 |
| CCC(CC)[C@@H](C(=O)Nc1ccc2nnc(C(C)C)n2c1)N1CCOCC1 | -5% | 0.98 |
| COCCc1nc(Cn2ccccc2=O)n(CCc2cnc[nH]2)n1 | -8% | 1.34 |
| O=C(CN(C[C@H]1CCCO1)C(=O)c1cncc(F)c1)N1CCCC1 | -2% | 0.31 |
| O=C(c1ccc(Br)cc1)[C@@H]1[C@@H]2CCCN2[C@]2(C(=O)Nc3ccc(Cl)cc32)[C@@]12C(=O)Nc1ccccc12 | 28% | -3.56 |
| CCOc1cc(Br)c(CC(=O)Nc2cccc(COCC3CC3)c2)cc1OCC | -6% | 1.01 |
| Cc1ccc(NC(=O)c2ccc3[nH]cnc3c2)c(O)n1 | 4% | -0.47 |
